Test [1] has as its target T1, claudin-7 (human (endogenous in A2780, OVCAR-3, SKOV-3 and A2780cis cells)) (UniProt O95471).
T1 sequence: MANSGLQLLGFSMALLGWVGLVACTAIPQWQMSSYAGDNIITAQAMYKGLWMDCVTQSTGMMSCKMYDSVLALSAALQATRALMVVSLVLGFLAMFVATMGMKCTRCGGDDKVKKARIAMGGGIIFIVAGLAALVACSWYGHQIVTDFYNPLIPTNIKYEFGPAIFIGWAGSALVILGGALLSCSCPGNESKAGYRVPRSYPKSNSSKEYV
In words: co-IP; A2780 cells lysed in 1% Triton X-100 buffer; lysates precipitated with antibodies to the studied molecules, western blot. In general terms: A western blot detects proteins with antibodies after separation by electrophoresis.

In test [2] the target is claudin-4 (human (endogenous in A2780, OVCAR-3, SKOV-3 and A2780cis cells)) (UniProt O14493). In words: co-IP; SKOV-3 cells lysed in 1% Triton X-100 buffer; lysates precipitated with antibodies to the studied molecules, western blot.
In test [3] the target is T2, Epithelial cell adhesion molecule (EpCAM) (human (endogenous in A2780, OVCAR-3, SKOV-3 and A2780cis cells)) (UniProt P16422).
T2 sequence: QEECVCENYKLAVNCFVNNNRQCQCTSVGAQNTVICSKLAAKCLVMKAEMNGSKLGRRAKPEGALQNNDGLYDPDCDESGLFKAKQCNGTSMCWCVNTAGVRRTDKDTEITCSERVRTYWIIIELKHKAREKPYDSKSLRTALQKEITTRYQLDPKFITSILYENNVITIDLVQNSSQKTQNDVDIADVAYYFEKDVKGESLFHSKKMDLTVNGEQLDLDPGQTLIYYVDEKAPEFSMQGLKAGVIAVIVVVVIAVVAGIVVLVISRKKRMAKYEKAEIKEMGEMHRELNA
In words: co-IP; OVCAR-3 cells lysed in 1% Triton X-100 buffer; lysates precipitated with antibodies to the studied molecules, western blot.

The target in test [4] is claudin-4 (human (endogenous in A2780, OVCAR-3, SKOV-3 and A2780cis cells)) (UniProt O14493). The test is described as above.
Test [5] deals with T1, claudin-7 (human (endogenous in A2780, OVCAR-3, SKOV-3 and A2780cis cells)). In words: condition: only cells treated with 50 μM 2-BP (palmitoylation inhibitor); co-IP; A2780 cells treated with the palmitoylation inhibitor 2-BP (50 μM, 20 h, 37 °C), RIPA buffer; anti-CD82 or anti-claudin-7 precipitates.
Test [6] concerns the target T3, CD82 (Tspan-27) (human (endogenous in A2780, OVCAR-3, SKOV-3 and A2780cis cells)) (UniProt P27701).
T3 sequence: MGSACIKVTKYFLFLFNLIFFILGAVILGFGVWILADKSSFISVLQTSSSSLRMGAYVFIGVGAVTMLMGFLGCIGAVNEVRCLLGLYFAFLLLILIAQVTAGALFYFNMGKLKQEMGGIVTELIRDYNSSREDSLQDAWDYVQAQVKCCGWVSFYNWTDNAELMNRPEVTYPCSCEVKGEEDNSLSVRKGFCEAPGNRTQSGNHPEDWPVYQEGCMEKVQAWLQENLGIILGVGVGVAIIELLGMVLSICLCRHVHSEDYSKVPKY
In words: condition: only cells treated with 50 μM 2-BP (palmitoylation inhibitor); co-IP; SKOV-3 cells treated with the palmitoylation inhibitor 2-BP (50 μM, 20 h, 37 °C), RIPA buffer; anti-CD82 or anti-claudin-7 precipitates.

The target in test [7] is T1, claudin-7 (human (endogenous in A2780, OVCAR-3, SKOV-3 and A2780cis cells)). The description is as above.
In test [8] the target is T3, CD82 (Tspan-27) (human (endogenous in A2780, OVCAR-3, SKOV-3 and A2780cis cells)). In words: condition: only cells treated with 50 μM 2-BP (palmitoylation inhibitor); co-IP; OVCAR-3 cells treated with the palmitoylation inhibitor 2-BP (50 μM, 20 h, 37 °C), RIPA buffer; anti-CD82 or anti-claudin-7 precipitates.
In test [9] the target is T1, claudin-7 (human (endogenous in A2780, OVCAR-3, SKOV-3 and A2780cis cells)). The test is described as above.
Test [10] addresses T3, CD82 (Tspan-27) (human (endogenous in A2780, OVCAR-3, SKOV-3 and A2780cis cells)). In words: condition: only lysed in RIPA buffer after DTSSP treatment; cross-linking + co-IP; A2780 cells treated with the membrane-impermeable cross-linker DTSSP (1 mM, 30 min, 37 °C), lysed in RIPA buffer; anti-CD82 or anti-claudin-7 precipitates.
Test [11] addresses T4, claudin-4 (human (endogenous in A2780, OVCAR-3, SKOV-3 and A2780cis cells)), O14493.
T4 chain: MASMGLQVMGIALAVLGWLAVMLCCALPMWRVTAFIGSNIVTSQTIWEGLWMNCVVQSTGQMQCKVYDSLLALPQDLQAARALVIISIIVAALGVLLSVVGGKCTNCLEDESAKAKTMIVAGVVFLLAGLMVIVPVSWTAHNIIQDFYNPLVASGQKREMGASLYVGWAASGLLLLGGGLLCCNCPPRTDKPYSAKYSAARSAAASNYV
In words: co-IP; A2780 cells lysed in 1% Triton X-100 buffer; lysates precipitated with antibodies to the studied molecules, western blot. The conditions noted are these: remark: other sources report otherwise.

Test [12] deals with T5, claudin-1 (human (endogenous in A2780, OVCAR-3 and SKOV-3 cells)), O95832.
T5 chain: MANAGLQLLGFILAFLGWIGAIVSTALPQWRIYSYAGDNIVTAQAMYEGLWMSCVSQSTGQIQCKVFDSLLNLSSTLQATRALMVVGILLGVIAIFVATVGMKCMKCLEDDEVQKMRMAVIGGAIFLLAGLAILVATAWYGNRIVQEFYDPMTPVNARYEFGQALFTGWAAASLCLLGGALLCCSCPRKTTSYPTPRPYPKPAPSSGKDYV
In words: co-IP; SKOV-3 cells lysed in 1% Triton X-100 buffer; lysates precipitated with antibodies to the studied molecules, western blot. The conditions noted are these: remark: other sources report otherwise.

Test [13] has as its target T4, claudin-4 (human (endogenous in A2780, …)). The description is as above. The conditions noted are these: remark: other sources report otherwise.
In test [14] the target is T5, claudin-1 (human (endogenous in A2780, …)). In words: co-IP; OVCAR-3 cells lysed in 1% Triton X-100 buffer; lysates precipitated with antibodies to the studied molecules, western blot. The conditions noted are these: remark: other sources report otherwise.
In test [15] the target is T4, claudin-4 (human (endogenous in A2780, …)). Described as above. The settings on record: remark: other sources report otherwise.

These results are taken from publication PMC7757826.

No constants are given. Whether binding was seen depends on the method and setting. Binding seen in cells or lysates may run through a third protein. Some results given as binding are weak or reduced against the parent protein; the word gives no strength.

As to claudin-1 (from UniProt O95832 1-211), the binding entry is on record as “binds weakly” in [1]; “binds” in [2]; “binds” in test [3]; “binds weakly” in test [4]; “no binding” in test [5]; “no binding” in test [6]. The binding entry in test [7], in test [8], in test [9] and in test [10] was “no binding” each time.

B1: claudin-7, O95471 1-211 (protein)
chain: T1 sequence
In the case of B1, the binding result in test [11], in [12], in test [13], in test [14] and in test [15] was “binds” each time.
